# T1: GFP-tagged PP2A regulatory subunit B55α (UniProt P63151 1-447)
# T1 sequence: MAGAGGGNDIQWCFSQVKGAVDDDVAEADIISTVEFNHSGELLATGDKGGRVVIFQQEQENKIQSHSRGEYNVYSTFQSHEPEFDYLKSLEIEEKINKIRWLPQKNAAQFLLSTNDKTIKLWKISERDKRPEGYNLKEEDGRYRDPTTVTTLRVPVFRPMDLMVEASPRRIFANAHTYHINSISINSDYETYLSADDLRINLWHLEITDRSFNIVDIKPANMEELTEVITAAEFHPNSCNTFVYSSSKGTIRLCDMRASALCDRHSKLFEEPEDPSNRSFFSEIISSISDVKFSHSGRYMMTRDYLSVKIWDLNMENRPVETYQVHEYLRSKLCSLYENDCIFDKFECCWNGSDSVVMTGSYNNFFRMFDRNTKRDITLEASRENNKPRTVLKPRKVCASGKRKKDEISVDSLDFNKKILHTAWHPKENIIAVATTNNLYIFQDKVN
# B1: HA-tagged Aα variant p.Met180Lys (natural protein)
# chain: not shown
# Molecular target: T1, GFP-tagged PP2A regulatory subunit B55α
# Assay: co-IP
binder,measurement,value
B1,decrease of binding relative to WT Aα,50%

# Source: article PMC7862067 (Genetics in Medicine, 2020)
